The campaign covered roughly 44,000 compounds. About 340 (0.77%) were called active. Not shown: some 5% with an inconclusive outcome. Calls come from the whole dose curve; as a rule, active = well fitted inhibition curve with a large enough effect; inconclusive = small, poorly fitted or top-dose-only effect; inactive = flat fitted curve, though single readings scatter. This is one part of the list.
Test: Acumen qHTS Assay for Inhibitors of the mTORC1 Signaling Pathway in MEF (Tsc2-/-, p53-/-) Cells: Sytravon;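 note: plate controls were DMSO for no effect and rapamycin for full effect; nearly all actives have a fitted effect of over 50% in size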
Settings: phospho-rpS6 immunofluorescence/PI, 24 h; series mostly up to 38.3 µM; activity change, negative = inhibition: at the top concentration
Summary of the method: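 Cell-based qHTS: Tsc2-/- p53-/- MEF, 24 h cpd, 37 °C; fix/perm, anti-phospho-S6 Alexa-488 + PI; Acumen 488 nm scan; pS6/PI ratio, % positive cells; rapamycin 7.5 nM = inhibition ref; PI count = viability.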

Activity change, negative = inhibition, inactive:
Cc1cc(NC(=O)CN2C(=O)CSc3ccc(S(=O)(=O)N(C)C)cc32)ccc1Br -6.52%
CSc1ccc(CCNC(=O)c2ccc3c(c2)nc2n3CCOC2)cc1 15.6%
CCOC(=O)c1c(NC(=O)c2nc(SC)ncc2Cl)sc(C)c1C 6.01%
COc1cccc(-c2ccnc3[nH]n(-c4ccccc4)c(=O)c23)c1 2.48%
Cc1ccc(-n2c(SCC(=O)N3CCC(C)CC3)nc3c([nH]c4ccccc43)c2=O)cc1 5.47%
Cc1ccc(NC(=O)c2ccc(F)c(S(=O)(=O)N3CCc4ccccc4C3)c2)cc1F 15.3%
COc1ccccc1CNC(=O)c1cc2c(=O)n(Cc3cccs3)ccc2nc1C 1.2%
Cn1c(=O)n(CCCc2ccccc2)c(=O)c2c1nc1n2CCN1c1ccccc1 6.87%
CCOC(=O)c1scc(-c2ccc(C)cc2)c1S(=O)(=O)Nc1ccc(F)c(F)c1 -9.75%
COc1ccc2c(c1)c(=O)c(C(=O)c1ccc(Cl)cc1)cn2CC(=O)Nc1ccc2c(c1)OCO2 3.4%
CCN(Cc1ccccc1)C(=O)CCS(=O)(=O)c1ccc2c(c1)oc(=O)n2C -5.1%
CCOC(=O)N1CCc2c(sc(NCc3sccc3C)c2C(=O)Nc2ccccc2OCC)C1 1.83%
CCOC(=O)c1ccc(NC(=O)CN2C(=O)CC(c3ccc(C)c(C)c3)=Nc3ccccc32)cc1 -14.6%
Cc1c(Cl)cccc1NC(=O)NCCOCCn1c(=O)oc2ccccc21 1.15%
CCOc1ccc(CCNC(=O)c2ccc3c(c2)N(Cc2cccc(Cl)c2)C(=O)c2ccccc2S3(=O)=O)cc1OCC 0.0286%
Cc1cc(-c2nc3ccccc3s2)ccc1NC(=O)c1cc(Cl)ccc1Cl 4.4%
COc1ccc2c(C)c(CCC(=O)NCc3ccc(OC)c(OC)c3)c(=O)oc2c1 -3.11%
Cc1sc(NC(=O)COc2ccc(C(C)(C)C)cc2)c(C(=O)OC(C)C)c1C -1.18%
CCc1ccc(N2C(=O)CS(=O)(=O)C23C(=O)N(Cc2ccccc2F)c2ccccc23)cc1 (stereo not given) -5.67%
COc1cc(-c2noc(-c3cc(C)[nH]n3)n2)cc(OC)c1OC 0.553%
COc1cccc(NC(=O)C2CCN(S(=O)(=O)c3cc(-c4noc(C)n4)ccc3C)CC2)c1 -3.8%
CCN1CCN(C(=O)c2cnn(-c3cccc(C)c3)c2C2CCN(C(=O)OC(C)(C)C)CC2)CC1 -2.61%
COc1cccc(CNC(=O)c2cccn2-c2nnc(N3CCCC3)s2)c1 5.6%
COc1ccc(C2CC(=O)c3c([nH]c(C(=O)OCCOc4ccccc4)c3C)C2)cc1OC (stereo not given) -11.3%
CCn1cc(C(=O)N2CCN(c3ccccc3)CC2)c(=O)c2cc(S(=O)(=O)N3CCC(C)CC3)ccc21 -1.18%
CCOc1ccc(NC(=O)c2cn3c4c(ccc(Cl)c4c2=O)OC(C)C3)cc1 (stereo not given) 1.68%
Cc1ccc(-c2noc(C3CC(=O)N(c4ccc5c(c4)OCCO5)C3)n2)cc1 (stereo not given) 0.918%
COc1ccc(CNC(=O)C2CCN(S(=O)(=O)c3cn(C)cn3)CC2)cc1 0.597%
COc1ccc(NC(=O)N(Cc2ccco2)C2CCN(C(C)=O)CC2)c(OC)c1 -7.64%
CCSc1nc(=O)c2c(n1C)NC(=O)CC2c1ccc(O)cc1OC (stereo not given) -9.83%
CCc1ccc(OCC(=O)NCC(c2ccc(OC)cc2)N2CCOCC2)cc1 (stereo not given) -4.56%
Cc1cccc(C)c1NC(=O)CN(C)S(=O)(=O)c1ccc2c(c1)n(C)c(=O)c(=O)n2C -1.69%
Cc1cccc(C(=O)N(Cc2nc(-c3ccc(Cl)cc3)no2)C(C)C)c1 -6.39%
CC(=O)c1cccc(NC(=O)Cn2c(C)c3cnn(-c4ccccc4)c(=O)c3c2C)c1 -11.1%
Cc1ccc2c(CNC3CCC(C)CC3)c(C(=O)O)n(Cc3cccc(F)c3)c2c1 (stereo not given) -0.671%
CCN(CC)CCNC(=O)c1ccc2c(c1)N(Cc1ccccc1)C(=O)c1ccccc1S2=O (stereo not given) -13%
COc1ccc(-n2c(=O)c3sc4ccccc4c3n(Cc3ccccc3)c2=O)cc1 -3.45%
COc1cc2c(cc1OC)C(c1ccc(F)cc1)N(c1ccc(F)cc1)C(=O)C2 (stereo not given) -1.98%
COc1cc(NC(=O)c2cc3nc(-c4ccccc4)cc(-c4ccccc4)n3n2)c(OC)cc1Cl -1.54%
CC1CCN(c2nc3ccc(C(=O)NCc4ccc(Cl)cc4)cc3s2)CC1 -3.35%
COc1ccc(C(=O)Nc2ccc3nc(SCC(=O)N4CCOCC4)sc3c2)cc1 -1.74%
COC(=O)c1ccc(OC)c(Cn2c(=O)n(-c3ccc(C)cc3)c(=O)c3c2cnn3C)c1 -0.374%
COc1ccc(C2CC(=O)N(CC(=O)Nc3ccc(C(F)(F)F)cc3)c3ccccc3S2)cc1 (stereo not given) 0.293%
O=C(Cn1c(=O)nc(-c2ccccc2)c2cc(Cl)ccc21)NCCCc1ccccc1 2.83%
CCc1nn(CC(=O)NC2CC2)c(=O)c2cc3ccccc3n12 -5.94%
COc1cccc(CNC(=O)c2c3c(nc4ccccc24)C(=O)N(C2CCCCC2)C3)c1 0%
Cn1cc(C(=O)NCc2ccccc2)c(=O)c2cc(S(=O)(=O)N3CCCCCC3)ccc21 2%
Cc1ccccc1Oc1nc2c(c(=O)n(C)c(=O)n2C)n1Cc1ccc(Br)cc1 1.12%
Cc1ccc(C)c(CSc2nc3ccncc3n2Cc2nc(-c3ccccc3Cl)oc2C)c1 0.164%
CCCCc1ccc(Nc2ncnc3c2cnn3-c2ccc(C)cc2)cc1 -2.25%
CCC1CCCCN1C(=O)Cn1c(=O)n(CC2CCC(C(=O)NC)CC2)c(=O)c2sccc21 (stereo not given) -0.699%
CC(NC(=O)CSc1n[nH]c(-c2ccccc2)n1)c1nc2ccccc2n1C (stereo not given) 2%
COc1cc(OC)c(NC(=O)c2cc(S(=O)(=O)N3CCCC3)cn2C)cc1Cl -0.244%
O=C(Nc1ccc(OC(F)(F)F)cc1)NC1COc2ccccc2C1 (stereo not given) -19.5%
COc1ccc(Cl)cc1S(=O)(=O)Nc1cccc(-c2ccc(N3CCOCC3)nn2)c1 -8.18%
COC(=O)c1ccc(C(=O)OC)c(NC(=O)c2c(-c3ccccc3)c(-c3ccccc3)nn(C)c2=O)c1 2.42%
Cc1ccc2c(c1)nc(SCC(O)c1ccc(Br)cc1)n2C (stereo not given) -3.25%
COc1ccc(N2CCN(Cc3nc4c(c(=O)[nH]c(=O)n4C)n3Cc3ccccc3)CC2)cc1 1.72%
Cn1c(=O)c2sccc2n2c(CCC(=O)NCc3ccccc3)nnc12 0%
O=C(CCCn1c(=O)c2ccccc2n(CC(=O)Nc2ccc(F)cc2F)c1=O)NCc1ccccc1Cl -8.09%

Reference: PubChem BioAssay AID493208 (National Center for Advancing Translational Sciences (NCATS), 2011)
